Literature values in US11045554B1 (National Technology & Engineering Solutions of Sandia, LLC, priority 2018, dated 2021).

Conditions: mouse plasma, after 3 hours; cited from earlier work

For `CN1CCN(C)C(=Nc2ccc([N+](=O)[O-])cc2C(=O)Nc2ccccc2)C1` [ML336, 2-[(1,4-dimethylpiperazin-2-ylidene)amino]-5-nitro-N-phenylbenzamide], the reduction of drug is given as 35%.
